Data on eight molecules can be found in the supplement of paper PMC12632987.

Whole data set: some 2,300 sequences, median “median log2 fold change of GCK-ALFA target abundance (FLAG IP / Myc IP barcode read proportion)” near 0.095, cut for the lowest 2% near -0.47. The list shows a part of the results.

B1: LC3A_132_236 (protein)
chain: QEKKLEEIEKKLEELLEEARKNIDDLEKVKKLLEEIEKLLEEAKKELSLEEFIELAEKVAKRLDELAEEAEKAGKEEVAALLENASLYADGLAIEAELEE
B2: LC3A_free_39_2284 (protein)
chain: MEELIEELLERIKEADPNLTEEDIKAIRELLELVSDNPELAKEIAEAIIEALRAGVDREEILKLIKKANKEMKENPEEREKIAKELIEDLRDLANLVPLD
B3: LC3A_28_1284 (protein)
chain: SPLDESLAAARAAAEAAAAAGEPAVITIKIPGGATQEEIEKAIATLEEIAEILKDVPDQAIVVDIDSGVEQEHIDKIADKAEEIEEKYPNVTVIIALDED
B4: LC3A_28_665 (protein)
chain: SALDAALAAALAEAREGLARGEPTVVTITVPGTADQAQIDRVLATLEEIAELLAPVPGSAIVIDLDGDVPQEHRDRLIDRAEELEERYPNVTVIIAEEEE
B5: LC3A_45_1945 (protein)
chain: MAKATVLVLVPEEKFDEALKVLREAAERISKERGIEVEIDEEAVKEAREEAKKNGEALLELTVYSDDEDTALDAAVEIADELERKLGPEVAVAIAIEEIP
B6: LC3A_28_1332 (protein)
chain: SHIEEQLAAAKATAQEQLAAGEDVVIEVTFTGETTLEDAEYAMEKLEEIVKEVAPKTKVSIIINVDGGVSQENIDLIAEKADEIEKKYPNATVIIALDEE
B7: LC3A_free_26_2160 (protein)
chain: EEFVDIYNIDKAIELLEEALKLVKEENPEAKELIELLEKAIELVKKETLESLEKALELVEKAIELVKKDKSFSEEAKEKLLKLLEEAKEHIKENIEIMKS
B8: LC3A_free_46_2414 (protein)
chain: WKVEVEVWTRAAPKEEIDALVEELTAGAKEIAAKHGAEVKIEVEYFKNEDGTYSALITITVTVDDEETAKKIAQELLDKIDELDEKTGLIGLISVEVIKE

This assay deals with MAP1LC3A, Q9H492. As to the kind of experiment: median log2 fold change of GCK-ALFA target abundance (FLAG IP / Myc IP barcode read proportion) (log2 ratio); each designed protein is fused to an ALFA-tag nanobody in HEK293 cells to bring the named protein to FLAG-tagged glucokinase (GCK); Myc marks an untargeted standard; higher = target protein stabilised (more abundant). The conditions noted are these: target protein: 3xFLAG-MCP-GCK-ALFA reporter; HEK293 landing pad (RPLP). In outline:
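HEK293 landing-pad cells received a recombined binder library fused to the ALFA nanobody and were induced with 2 μg mL^−1 doxycycline, then transfected with a plasmid encoding a FLAG-tagged target and a Myc-tagged standard. Lysates were collected after 48 h for anti-FLAG and anti-Myc immunoprecipitation, and the circular RNA barcodes were reverse transcribed, amplified and sequenced. Target abundance for each binder is the median log2 ratio of FLAG to Myc barcode read proportions. Barcodes had to reach a proportion of at least 10^−7 in both replicates, each binder needed at least 3 barcodes per replicate, a pseudocount of 10^−6 was applied, and the two replicates were pooled.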
As to B1, the “median log2 fold change” value is -0.0956.

Take B2: the “median log2 fold change” value was -0.0351.

On to B3, for which the “median log2 fold change” value turned out to be 0.013.

Consider B4, for which the “median log2 fold change” value turned out to be 0.082.

On to B5, for which the “median log2 fold change” value stood at 0.148.

Take B6: the “median log2 fold change” value is -0.0109.

In the case of B7, the “median log2 fold change” value came to 0.228.

Take B8: the “median log2 fold change” value was 0.183.
